We go through 109 sequences from the supplement of paper PMC3334620.

In all, about 33,000 sequences were measured (“E-score (-0.5 to 0.5)”: median about -0.016, highest 2% from about 0.32 on). The list shows a part of the results.

In this experiment the target is T1, Stp1 (UniProt B3LFK1).
T1 sequence: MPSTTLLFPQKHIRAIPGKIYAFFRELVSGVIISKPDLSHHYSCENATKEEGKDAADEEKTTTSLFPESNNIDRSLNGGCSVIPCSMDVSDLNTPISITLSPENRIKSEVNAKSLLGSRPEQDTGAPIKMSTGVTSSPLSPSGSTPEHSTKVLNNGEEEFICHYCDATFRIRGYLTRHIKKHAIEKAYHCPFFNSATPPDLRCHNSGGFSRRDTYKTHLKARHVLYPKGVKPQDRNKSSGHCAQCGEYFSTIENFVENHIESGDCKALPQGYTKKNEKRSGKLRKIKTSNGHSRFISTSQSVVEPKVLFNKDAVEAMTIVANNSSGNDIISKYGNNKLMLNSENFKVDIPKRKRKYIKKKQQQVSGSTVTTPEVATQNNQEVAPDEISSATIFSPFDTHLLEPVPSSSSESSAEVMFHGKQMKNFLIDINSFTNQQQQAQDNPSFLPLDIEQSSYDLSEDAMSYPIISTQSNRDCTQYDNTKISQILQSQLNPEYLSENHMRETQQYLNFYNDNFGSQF
Kind of experiment: PBM E-score (8-mer binding enrichment) (E-score (-0.5 to 0.5)); higher = stronger / more preferred TF binding; most listed sequences are background and not binding sites. To be noted: protein concentration: 200 nM; construct: GST-full length. A digest of the protocol: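 Masliner-normalised scans of fluorescent anti-GST signal were the basis for scoring. That signal came from GST-tagged yeast transcription factors applied at about 100-200 nM to double-stranded universal all-10-mer Agilent arrays on fresh or once-stripped slides. Each ungapped eight-base word, pooled with its reverse complement, received an E-score from the Universal PBM Analysis Suite.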
In the case of GAGATTGC, the “PBM E-score” value is -0.101. The same measure for AGCGTAGC: -0.138; for ATTGAAGG: -0.159.

As for CCTGTGAC, the “PBM E-score” value is -0.203.

As for CCGGCATC, the “PBM E-score” value was -0.0881. Turning to AAGCTGAC, the “PBM E-score” value is -0.176. With CAAACGGC, the “PBM E-score” value was determined as 0.459.

As for ACCTGAGA, the “PBM E-score” value is -0.149. With AGCCCGCA the figure was -0.0688; with AATGATTC, -0.0322; with CCCTCTAC, -0.256. With AAATGCCG the figure was 0.443; with CCGAACCA, -0.0367; with TCGGAGCA, -0.154. For the sequence AACCACTG, the “PBM E-score” value was -0.0129.

For the sequence AAAAGGAC, the “PBM E-score” value is 0.0161. With ACCGACCC the figure was -0.123; with ACCGCAGT, -0.27; with GAGCCCGA, -0.0565. The same measure for AAATTTGA: 0.114. With CTTACAAG the figure was 0.0909.

In the case of GCGATTCC, the “PBM E-score” value is 0.155. Consider ACATACCT, for which the “PBM E-score” value is -0.0669. With GTACTGAC the figure was 0.012; with CGATCTTC, -0.0457; with AACTACGG, -0.0064.

As for AACGCTCT, the “PBM E-score” value was -0.216. With AGGAGGTC the figure was -0.254; with CAGCCCAG, -0.245; with CCCCGTTA, -0.139. The same measure for TATAGGGA: -0.174; for GGCCCTAA: 0.0628.

For the sequence CGGATCCG, the “PBM E-score” value is -0.00053. The same measure for TATTCCCA: -0.11; for CAGAGTCA: -0.168.

With AGATGGTC, the “PBM E-score” value is -0.14. As for GAGACTAA, the “PBM E-score” value is -0.0418.

In the case of GCCGCGGA, the “PBM E-score” value was determined as 0.343. The same measure for CTAGTCAG: -0.176; for CACCCGCG: 0.0867; for CGGGCAGC: -0.0936.

As to AGCCGTTA, the “PBM E-score” value was 0.159. With GCGGGTCA, the “PBM E-score” value is -0.0965. With ACTAACAC the figure was 0.103; with AGTTAAGC, 0.112; with CTAATGAA, 0.176. Consider AAAGATAG, for which the “PBM E-score” value is -0.196. Turning to AACGCATC, the “PBM E-score” value is -0.145.

As for AAGTCTCA, the “PBM E-score” value is -0.256. As to CTTGGAGA, the “PBM E-score” value was -0.0579.

Regarding CTTTTGAA, the “PBM E-score” value was 0.108.

Consider CCTAATCG, for which the “PBM E-score” value amounted to 0.0111.

Regarding CGCGAAAA, the “PBM E-score” value was found to be 0.239. With CGGTGCTC the figure was -0.056; with AACGGAAA, 0.0889. With CAGGCCCG the figure was -0.294. With ACATACTG the figure was -0.131; with CACTCACG, 0.0515; with ATAATACG, 0.122. Consider GACTCATA, for which the “PBM E-score” value was -0.196. On to AGAAATCG, for which the “PBM E-score” value is 0.0541.

Take TCGCGTAA: the “PBM E-score” value was 0.235. Regarding CGGCGCTC, the “PBM E-score” value stood at 0.427. The same measure for CTGATACC: -0.0583. The same measure for GTCCAGCA: -0.167; for CTTCTCCC: -0.277. For AGTCTCGA, the “PBM E-score” value is -0.171. CAGTGTAA: the “PBM E-score” value was 0.117. The same measure for GGCACAAA: 0.374; for GACAAAGA: 0.0251. Regarding GGACCCAC, the “PBM E-score” value is -0.128.

In the case of CACGAGCG, the “PBM E-score” value worked out at 0.0362. With CAGGTCTA the figure was -0.224.

In the case of GAGGATGA, the “PBM E-score” value was -0.106. On to AGACCATC, for which the “PBM E-score” value was -0.131. The same measure for AACCATTA: 0.123.

With AGGAGCTC, the “PBM E-score” value was -0.213. With CCGGTCTA the figure was -0.093; with CTACGACC, -0.123.

Consider AGCTCCGG, for which the “PBM E-score” value was -0.216.

With CACTCCTC, the “PBM E-score” value was -0.186. The same measure for ATACACCG: -0.116; for ATATTATA: 0.0917. With ACGGAAGA the figure was 0.253; with CTAGACCA, -0.128.

With CTGGTCAA, the “PBM E-score” value was -0.0901. ATTTAGAA: the “PBM E-score” value was determined as 0.192. The same measure for CCGTACCG: 0.253; for CGGCCTGA: -0.145; for AAGCGGCC: 0.282. As for AAGTATAG, the “PBM E-score” value was -0.0425. With CAATGCGG the figure was 0.196; with CCTAGTTC, -0.0366. The same measure for CGAGCGCG: 0.0983; for ACTCAGGG: -0.24; for AGTACAAC: 0.0701.

For the sequence CACTAGGG, the “PBM E-score” value is -0.07.

GGACACAC: the “PBM E-score” value is -0.0116.

Regarding GTTCTAGA, the “PBM E-score” value was 0.0744. With AGCTTTTG, the “PBM E-score” value amounted to 0.0144. The same measure for TCGTCGAA: -0.0605. With CTGCTCCA the figure was -0.0628; with ATGTCATA, 0.0494. The same measure for CACACCAA: 0.149; for GCCACCAA: 0.0233; for ATTGCGAG: 0.0325.

Turning to AATCGACA, the “PBM E-score” value was 0.145.

ACTCGTCG: the “PBM E-score” value was -0.164. With TATTTTCA the figure was 0.292.
